Counter-ions that a name gives are not always drawn. ± gives the standard deviation of the averaged measurements. In all, about 2,000 compounds were measured (“relative cell viability vs DMSO, compound alone”: median about 1.1, lowest 2% from about 0.29 on). The list shows a part of the results.
What follows are compounds tested on TE10 (assay: relative cell viability vs DMSO, compound alone (fraction); TE10 is an esophageal squamous carcinoma line; higher = less cytotoxic). Settings: 2 µM; 48 h.
Method: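 TE10 ESCC cells (1,000/well, 384-well plates) were treated with Selleck bioactive library compounds at 2 uM alone for 48 h. Viability was read by CellTiter-Glo and expressed relative to DMSO wells. Two technical replicates (A, B).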

Structure (SMILES) | relative cell viability
CCCCc1oc2ccccc2c1C(=O)c1cc(I)c(OCCN(CC)CC)c(I)c1 [Amiodarone HCl] | 0.9232 ± 0.0053
O=C(O)c1cccnc1 [Nicotinic Acid] | 1.13 ± 0.021
C=CCNC1=C2C[C@@H](C)C[C@H](OC)[C@H](O)[C@@H](C)/C=C(\C)[C@H](OC(N)=O)[C@@H](OC)/C=C\C=C(/C)C(=O)NC(=CC1=O)C2=O [17-AAG (Tanespimycin)] | 0.5802 ± 0.0011
Cc1cccc(N(C)C(=S)Oc2ccc3ccccc3c2)c1 [Tolnaftate] | 0.9946 ± 0.0045
O=c1[nH]c(=O)n([C@H]2C[C@H](O)[C@@H](CO)O2)cc1I [Idoxuridine] | 1.08 ± 0.029
CN1CCN(c2ccc3nc(-c4c(N)c5c(F)cccc5[nH]c4=O)[nH]c3c2)CC1 [Dovitinib (TKI258) Lactate] | 1.02 ± 0.027
CN1CCN(c2ccc3nc(-c4c(N)c5c(F)cccc5[nH]c4=O)[nH]c3c2)CC1 [Dovitinib (TKI-258, CHIR-258)] | 0.967 ± 0.11
CN1CCN(c2ccc3nc(-c4c(N)c5c(F)cccc5[nH]c4=O)[nH]c3c2)CC1 [Dovitinib (TKI-258) Dilactic Acid] | 0.976 ± 0.088
C[C@H]1C[C@H]2[C@@H]3CCC4=CC(=O)C=C[C@]4(C)[C@H]3C(=O)C[C@]2(C)[C@@]1(O)C(=O)CO [Meprednisone] | 0.927 ± 0.17
CCC(=O)OCC(=O)[C@@]1(OC(=O)CC)[C@@H](C)C[C@H]2[C@@H]3CCC4=CC(=O)C=C[C@]4(C)[C@@]3(F)[C@@H](O)C[C@@]21C [Betamethasone Dipropionate] | 0.975 ± 0.02
Cc1ccc(S(=O)(=O)OCC(=O)Nc2ccc(C(=O)O)c(O)c2)cc1 | 1.19 ± 0.077
O=C(O)CCCN1CCC(O[C@@H](c2ccc(Cl)cc2)c2ccccn2)CC1 [Bepotastine Besilate] | 1.11 ± 0.08
O=C(Nc1ncc(SCCN2CCCC2)s1)[C@]1(c2ccc(S(=O)(=O)C3CC3)cc2)C[C@H]1C1CCCCC1 | 0.896 ± 0.039
NNC(=O)c1ccncc1 [Isoniazid] | 1.102 ± 0.0026
CC1(C)C=C(CN2C/C(=C\c3ccc(F)cc3)C(=O)/C(=C/c3ccc(F)cc3)C2)C(C)(C)N1O | 0.8405 ± 0.0057
CN1CCN(Cc2ccc(-c3cnc4[nH]cc(-c5ccc6[nH]ccc6c5)c4c3)cc2)CC1 | 1.028 ± 0.0046
CCOC(=O)C1=C(C)NC(C)=C(C(=O)OC)C1c1cccc(Cl)c1Cl (stereo not given) [Felodipine] | 1.1 ± 0.067
CCOC(=O)c1ccc(NC2CCCCC2)c(N)c1 [Ferrostatin-1 (Fer-1)] | 1.08 ± 0.052
O=C1c2c(O)ccc(O)c2C(=O)c2c(NCCNCCO)ccc(NCCNCCO)c21 [Mitoxantrone HCl] | 0.606 ± 0.019
O=C1c2c(O)ccc(O)c2C(=O)c2c(NCCNCCO)ccc(NCCNCCO)c21 [Mitoxantrone] | 0.415 ± 0.014
